Laboratory results as given in the supplement of paper PMC7826260.
Some of the results follow. Viral Rep nickase domains cut single-stranded DNA in vitro at 3 µM enzyme and 37 °C for 1 h; the strands have 90 letters, of which the middle is given. Numbers give uncut DNA relative to the enzyme-free pool, as log2; uncut sequences lie near 0, cut ones below; no hit call is given. The scaling is to total reads; uncut strands gain when others are lost, and binding without cutting may add a little.

Key:
Assay in all cases: uncleaved DNA left, log2 of reads against the no-enzyme library (log2 ratio); higher = less cleavage (more negative = more Rep cleavage of the k-mer); sequences stand for … in CTCGTCCG…ACCGGAGA
[1] = tested on: T1, Rep nickase domain of Muscovy duck circovirus
T1 sequence (Rep 1-111, printed without the tag): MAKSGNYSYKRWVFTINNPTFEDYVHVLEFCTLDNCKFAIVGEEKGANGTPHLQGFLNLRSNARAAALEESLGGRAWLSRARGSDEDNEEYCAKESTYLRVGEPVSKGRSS
Experimental: (§1)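 A pool of 90-nt single-stranded DNAs with seven random bases just before the constant AC of the nick site (name = the seven bases) was cut by 3 µM recombinant His6-SUMO-tagged Rep nickase domain (300 nM DNA, 50 mM HEPES pH 8.0, 50 mM NaCl, 1 mM MnCl2, 1 h, 37 °C, three replicates). Uncut DNA was amplified and sequenced.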

[2] = tested on: T2, Rep nickase domain of banana bunchy top virus
T2 sequence (Rep 1-94, printed without the tag): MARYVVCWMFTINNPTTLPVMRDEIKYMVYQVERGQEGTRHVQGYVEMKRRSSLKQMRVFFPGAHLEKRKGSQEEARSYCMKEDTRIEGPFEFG
Experimental: as §1

[3] = tested on: T3, Rep nickase domain of cabbage leaf curl virus
T3 sequence (Rep 1-116, printed without the tag): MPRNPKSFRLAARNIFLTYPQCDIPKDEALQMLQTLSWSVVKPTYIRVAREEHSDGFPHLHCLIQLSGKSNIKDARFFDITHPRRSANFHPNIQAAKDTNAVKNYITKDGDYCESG
Experimental: as §1

[4] = tested on: T4, Rep nickase domain of chickpea chlorotic dwarf virus
T4 sequence (Rep 1-124, printed without the tag): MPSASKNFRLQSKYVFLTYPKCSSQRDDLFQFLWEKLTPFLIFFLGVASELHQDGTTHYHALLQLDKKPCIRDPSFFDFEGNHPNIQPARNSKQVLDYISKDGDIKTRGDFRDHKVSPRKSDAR
Experimental: as §1

[5] = tested on: T5, Rep nickase domain of faba bean necrotic yellows virus
T5 sequence (Rep 1-98, printed without the tag): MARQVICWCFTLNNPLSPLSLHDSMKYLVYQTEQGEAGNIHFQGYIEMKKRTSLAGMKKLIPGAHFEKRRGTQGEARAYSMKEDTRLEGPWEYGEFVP
Experimental: as §1

[6] = tested on: T6, Rep nickase domain of maize striate mosaic virus
T6 sequence (Rep 1-117, printed without the tag): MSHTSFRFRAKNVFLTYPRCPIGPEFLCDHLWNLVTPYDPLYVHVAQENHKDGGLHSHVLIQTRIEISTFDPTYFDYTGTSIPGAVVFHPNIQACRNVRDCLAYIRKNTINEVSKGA
Experimental: as §1

[7] = tested on: T7, Rep nickase domain of porcine circovirus 2
T7 sequence (Rep 2-116, printed without the tag): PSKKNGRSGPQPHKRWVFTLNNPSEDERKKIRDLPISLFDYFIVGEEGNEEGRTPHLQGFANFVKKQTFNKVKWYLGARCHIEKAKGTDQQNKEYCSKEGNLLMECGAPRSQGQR
Experimental: as §1

[8] = tested on: T8, Rep nickase domain of tomato yellow leaf curl virus
T8 sequence (Rep 1-136, printed without the tag): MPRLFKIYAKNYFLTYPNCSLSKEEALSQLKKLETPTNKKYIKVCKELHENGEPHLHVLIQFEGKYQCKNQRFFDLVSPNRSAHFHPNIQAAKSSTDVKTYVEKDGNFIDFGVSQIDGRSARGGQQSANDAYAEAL
Experimental: as §1

[9] = tested on: T9, Rep nickase domain of wheat dwarf virus
T9 sequence (Rep 1-137, printed without the tag): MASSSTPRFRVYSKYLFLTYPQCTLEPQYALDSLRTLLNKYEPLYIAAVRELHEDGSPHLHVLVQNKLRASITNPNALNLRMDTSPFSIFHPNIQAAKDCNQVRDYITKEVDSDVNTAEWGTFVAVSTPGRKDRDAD
Experimental: as §1

Row | Sequence | uncleaved DNA left (log2) [1] | uncleaved DNA left (log2) [2] | uncleaved DNA left (log2) [3] | uncleaved DNA left (log2) [4] | uncleaved DNA left (log2) [5] | uncleaved DNA left (log2) [6] | uncleaved DNA left (log2) [7] | uncleaved DNA left (log2) [8] | uncleaved DNA left (log2) [9]
1 | ATATACT | -4.24 | -0.743 | -3.17 | -3.48 | -0.0658 | -1.86 | -3.91 | -0.047 | -1.15
2 | AGACCAA | 0.0368 | 0.0737 | 0.662 | 1.05 | -0.0326 | 1.83 | 0.0453 | 0.168 | 0.113
3 | CATAACA | 0.032 | -0.0238 | -0.502 | -2.54 | -0.00058 | -0.9 | -0.105 | 0.106 | 0.00164
4 | ACTCACC | -0.0614 | 0.0686 | -0.0874 | -0.285 | -0.0554 | -0.328 | 0.0406 | -0.0206 | -0.0287
5 | AGCGACT | 0.081 | 0.202 | -0.0393 | 0.683 | 0.0202 | 1.71 | 0.181 | 0.0206 | 0.27
6 | AGTGTGT | 0.147 | -0.0063 | -0.11 | -0.202 | -0.0201 | -0.564 | -2.74 | 0.0323 | -0.00564
7 | TCGTATC | 0.0358 | -0.0282 | 0.233 | 0.0852 | -0.0691 | -0.297 | -0.209 | 0.0749 | 0.0958
8 | TCTAATC | 0.00592 | -0.00855 | 0.0698 | -0.0914 | 0.0574 | -0.436 | 0.0607 | 0.0773 | 0.0689
9 | GGATGCT | -0.364 | 0.105 | 0.313 | 0.478 | 0.106 | 0.408 | -1.27 | 0.183 | 0.157
10 | CCCGCCG | -0.141 | -0.0875 | -0.792 | -0.387 | -0.0485 | -0.881 | -0.0781 | -0.205 | -0.202
11 | TGCTACT | -2.83 | -0.271 | -1.57 | -2.62 | -0.0549 | 0.507 | -3.52 | -0.149 | -0.85
12 | CTTCTTA | 0.00144 | 0.0821 | 0.0847 | -1.25 | 0.0461 | -0.462 | -0.233 | 0.0645 | 0.174
13 | AACGAGG | 0.219 | 0.112 | 0.361 | 0.996 | 0.0504 | 0.782 | 0.339 | 0.0941 | 0.168
14 | GTTCTGT | -0.0935 | -0.0621 | 0.169 | 0.664 | -0.152 | 1.47 | 0.00565 | 0.0227 | -0.0194
15 | AGTGGTT | 0.0825 | 0.135 | 0.312 | 0.81 | -0.183 | 1.59 | -2.56 | -0.00938 | 0.0464
16 | TTTGTAT | -0.0389 | -0.121 | 0.142 | -0.645 | -0.0864 | -0.61 | -0.183 | -0.104 | -0.142
17 | GCCCTGC | 0.052 | 0.185 | -0.166 | -0.00103 | 0.0376 | -0.58 | 0.194 | 0.108 | -0.0242
18 | TGTACAT | 0.0284 | 0.107 | 0.73 | 1.63 | -0.0047 | 2 | 0.176 | 0.124 | 0.24
19 | GCGCTGT | 0.0975 | 0.02 | 0.153 | 0.595 | 0.07 | 1.55 | 0.0152 | 0.058 | -0.0187
20 | TTTTGAC | -0.0425 | -0.0898 | 0.059 | -0.0931 | -0.0531 | -0.605 | 0.0365 | 0.0385 | -1.5e-05
21 | ACGAGTC | 0.125 | -0.122 | -0.181 | -0.222 | 0.00528 | -0.84 | 0.0407 | -0.0843 | -0.0463
22 | TGTCACC | 0.0256 | 0.162 | 0.333 | 0.492 | 0.0133 | 0.977 | 0.000128 | 0.107 | 0.148
23 | GATGCGA | 0.0717 | -0.142 | -0.697 | 0.258 | -0.00445 | -0.645 | 0.103 | 0.00737 | -0.0923
24 | AACGGGG | 0.151 | 0.0892 | 0.841 | 1.38 | 0.122 | 2 | 0.337 | -0.0512 | 0.203
25 | CTATTGG | 0.0784 | -0.106 | -0.681 | -0.563 | 0.051 | -1.16 | 0.118 | 0.0176 | -0.0516
26 | AGATTAT | -0.475 | 0.108 | 0.317 | -0.165 | 0.216 | 0.0328 | -1.54 | -0.00927 | 0.191
27 | CATTGGT | -2.07 | -2.62 | -0.734 | -0.918 | 0.00384 | -1.13 | -3.31 | 0.0696 | -0.0922
28 | CCGTACC | -0.171 | -0.201 | 0.104 | -0.808 | -0.0732 | -0.347 | -0.728 | -0.131 | -0.178
29 | GCATACT | -2.64 | -0.0642 | -0.48 | -2.17 | -0.121 | -0.291 | -2.81 | 0.0507 | -0.0933
30 | CGTTGTG | 0.0413 | -0.0732 | -0.611 | 0.466 | -0.0723 | -0.421 | -0.0447 | 0.0595 | -0.115
